Assay results taken from US20250262222A1, “HETEROCYCLIC COMPOUNDS, COMPOSITIONS THEREOF, AND METHODS OF TREATMENT THEREWITH” (BeiGene Switzerland GmbH, priority 2022, published 2025).

Tests used:
[1] = molecular target: GST-tagged GDP-loaded WT KRAS (amino acids 1-188) (Homo sapiens, UniProt P01116); experiment: biochemical
[2] = molecular target: GST-tagged GDP-loaded KRAS G12D (amino acids 1-188) (Homo sapiens, UniProt P01116, G12D); experiment: biochemical

| Structure (SMILES) | IC50 [1] | IC50 [2] |
| --- | --- | --- |
| Cc1nc(N)cc(-c2nc3c4c(nc(OCC56COC(C5)C6)nc4c2F)N2CC4CCC(N4)[C@H]2CCO3)c1C(F)(F)F (stereo in doubt) [Example 42, 4-((6aR,7R,10S)-13-((2-oxabicyclo[2.1.1]hexan-4-yl)methoxy)-1-fluoro-5,6,6a,7,8,9,10,11-octahydro-4-oxa-3,11a,12,14,15-pentaaza-7,10-methanocyclohepta[4,5]cyclo-octa[1,2,3-de]naphthalen-2-yl)-6-methyl-5-(trifluoromethyl)pyridin-2-amine] | > 1000 nM | 8.2 nM |
| Nc1cc(Cl)c(C(F)(F)F)c(-c2nc3c4c(nc(OC[C@@]56CCCN5C[C@H](F)C6)nc4c2F)N2C[C@H]4CC[C@H](N4)C2CCO3)c1 (single isomer, unassigned) [Example 24] | 2 nM | 0.16 nM |
| CN1C(=O)OC2CC1(COc1nc3c4c(nc(-c5cc(N)cc(Cl)c5C(F)(F)F)c(F)c4n1)OCC[C@@H]1[C@@H]4CC[C@H](CN31)N4)C2 [Example 46, 5-((((6aR,7S,10R)-2-(5-amino-3-chloro-2-(trifluoromethyl)phenyl)-1-fluoro-5,6,6a,7,8,9,10,11-octahydro-4-oxa-3,11a,12,14,15-pentaaza-7,10-methanocyclohepta[4,5]cyclo-octa[1,2,3-de]naphthalen-13-yl)oxy)methyl)-4-methyl-2-oxa-4-azabicyclo[3.1.1]heptan-3-one] | 246 nM | 0.84 nM |
| Nc1cc(Cl)c(C(F)(F)F)c(-c2nc3c4c(nc(OCC56CCC(CC5)O6)nc4c2F)N2C[C@H]4CC[C@H](N4)[C@H]2CCO3)c1 [Example 55, 3-((6aR,7S,10R)-13-((7-oxabicyclo[2.2.1]heptan-1-yl)methoxy)-1-fluoro-5,6,6a,7,8,9,10,11-octahydro-4-oxa-3,11a,12,14,15-pentaaza-7,10-methanocyclohepta[4,5]cyclo-octa[1,2,3-de]naphthalen-2-yl)-5-chloro-4-(trifluoromethyl)aniline] | 684 nM | 4.2 nM |
| Nc1cc(Cl)c(C(F)(F)F)c(-c2nc3c4c(nc(OCC5(C(F)F)CCC5)nc4c2F)N2C[C@H]4CC[C@H](N4)[C@H]2CCO3)c1 [Example 58, 3-chloro-5-((6aR,7S,10R)-13-((1-(difluoromethyl)cyclobutyl)methoxy)-1-fluoro-5,6,6a,7,8,9,10,11-octahydro-4-oxa-3,11a,12,14,15-pentaaza-7,10-methanocyclohepta[4,5]cyclo-octa[1,2,3-de]naphthalen-2-yl)-4-(trifluoromethyl)aniline] | > 1000 nM | 15 nM |
| CC12CCC(COc3nc4c5c(nc(-c6cc(N)cc(Cl)c6C(F)(F)F)c(F)c5n3)OCC[C@@H]3[C@@H]5CC[C@H](CN43)N5)(CO1)C2 [Example 36, 3-chloro-5-((6aR,7S,10R)-1-fluoro-13-((1-methyl-2-oxabicyclo[2.2.1]heptan-4-yl)methoxy)-5,6,6a,7,8,9,10,11-octahydro-4-oxa-3,11a,12,14,15-pentaaza-7,10-methanocyclohepta[4,5]cyclo-octa[1,2,3-de]naphthalen-2-yl)-4-(trifluoromethyl)aniline] | 166 nM | 0.81 nM |
| Nc1cc(Cl)c(C(F)(F)F)c(-c2nc3c4c(nc(OCC5(CO)CC5(F)F)nc4c2F)N2C[C@H]4CC[C@H](N4)[C@H]2CCO3)c1 (stereo partly drawn) [Example 59, (1-((((6aR,7S,10R)-2-(5-amino-3-chloro-2-(trifluoromethyl)phenyl)-1-fluoro-5,6,6a,7,8,9,10,11-octahydro-4-oxa-3,11a,12,14,15-pentaaza-7,10-methanocyclohepta[4,5]cyclo-octa[1,2,3-de]naphthalen-13-yl)oxy)methyl)-2,2-difluorocyclopropyl)methanol] | 85 nM | 0.44 nM |
| Cc1cc(N)cc(-c2nc3c4c(nc(OCC56CCC(C)(C5)OC6)nc4c2F)N2C[C@H]4CC[C@H](N4)[C@H]2CCO3)c1C(F)(F)F [Example 51, 3-((6aR,7S,10R)-1-fluoro-13-((1-methyl-2-oxabicyclo[2.2.1]heptan-4-yl)methoxy)-5,6,6a,7,8,9,10,11-octahydro-4-oxa-3,11a,12,14,15-pentaaza-7,10-methanocyclohepta[4,5]cyclo-octa[1,2,3-de]naphthalen-2-yl)-5-methyl-4-(trifluoromethyl)aniline] | > 1000 nM | 2.9 nM |
| Oc1cc(Cl)c(C2CC2)c(-c2nc3c4c(nc(OCC56COC(C5)C6)nc4c2F)N2C[C@H]4CC[C@H](N4)[C@H]2CCO3)c1 [Example 38, 3-((6aR,7S,10R)-13-((2-oxabicyclo[2.1.1]hexan-4-yl)methoxy)-1-fluoro-5,6,6a,7,8,9,10,11-octahydro-4-oxa-3,11a,12,14,15-pentaaza-7,10-methanocyclohepta[4,5]cyclo-octa[1,2,3-de]naphthalen-2-yl)-5-chloro-4-cyclopropylphenol] | > 1000 nM | 3.6 nM |
| Nc1cc(Cl)c(C(F)(F)F)c(-c2nc3c4c(nc(OC[C@@]56CCCN5C[C@H](F)C6)nc4c2F)N2C[C@H]4CC[C@H](N4)[C@H]2CO3)c1 [Example 17, 3-chloro-5-((5aS,6S,9R)-1-fluoro-12-(((2R,7aS)-2-fluorotetrahydro-1H-pyrrolizin-7a(5H)-yl)methoxy)-5a,6,7,8,9,10-hexahydro-5H-4-oxa-3,10a,11,13,14-pentaaza-6,9-methanonaphtho[1,8-ab]heptalen-2-yl)-4-(trifluoromethyl)aniline] | 1.7 nM | 0.17 nM |
| Nc1cc(Cl)c(C(F)(F)F)c(-c2nc3c4c(nc(OC[C@@]56CCCN5C[C@H](F)C6)nc4c2F)N2CCNC[C@H]2CO3)c1 [Example 12, 3-chloro-5-((S)-1-fluoro-11-(((2R,7aS)-2-fluorotetrahydro-1H-pyrrolizin-7a(5H)-yl)methoxy)-5,5a,6,7,8,9-hexahydro-4-oxa-3,7,9a,10,12-pentaazabenzo[4,5]cyclohepta[1,2,3-de]naphthalen-2-yl)-4-(trifluoromethyl)aniline] | 22 nM | 2.8 nM |
| Nc1cc(Cl)c(C(F)(F)F)c(-c2nc3c4c(nc(OCC56CCC(COC5)C6)nc4c2F)N2C[C@H]4CC[C@H](N4)[C@H]2CCO3)c1 [Example 45, 3-((6aR,7S,10R)-13-((3-oxabicyclo[3.2.1]octan-1-yl)methoxy)-1-fluoro-5,6,6a,7,8,9,10,11-octahydro-4-oxa-3,11a,12,14,15-pentaaza-7,10-methanocyclohepta[4,5]cyclo-octa[1,2,3-de]naphthalen-2-yl)-5-chloro-4-(trifluoromethyl)aniline] | 298 nM | 0.63 nM |
| CCOC(=O)N1CC(C)(COc2nc3c4c(nc(-c5cc(N)cc(Cl)c5C(F)(F)F)c(F)c4n2)OCC[C@@H]2[C@@H]4CC[C@H](CN32)N4)C1 [Example 33, ethyl 3-((((6aR,7S,10R)-2-(5-amino-3-chloro-2-(trifluoromethyl)phenyl)-1-fluoro-5,6,6a,7,8,9,10,11-octahydro-4-oxa-3,11a,12,14,15-pentaaza-7,10-methanocyclohepta[4,5]cyclo-octa[1,2,3-de]naphthalen-13-yl)oxy)methyl)-3-methylazetidine-1-carboxylate] | 253 nM | 0.91 nM |
